Source: the DeepSol protein solubility set

Assay: soluble on expression in E. coli; label from the status in PepcDB or PDB records

Row | Sequence | soluble on expression in E. coli
1 | MAHHHHHHMGTLEAQTQGPGSMRLIIRPTYEDISKWAANHVAQKINEFSPTKENPFILGLPTGSSPIGMYKNLIELNKNKKISFQNVITFNMDEYIGIEENHPESYHSFMWNNFFSHIDIKKENINILNGNASNLKKECEEYEKKIKSFGGIMLFVGGIGPDGHIAFNEPGSSLTSRTRIKTLTQDTIIANSRFFEGDVNKVPKNALTVGIGTIMDSQEVLIIVNGHNKARALKHAIEKGVNHMWTISALQLHKNAIIVSDKNATYELKVGTVEYFNDIERKNFNNDLK | soluble
2 | MGSCIGKEDPPPGATSPVHTSSTLGRESLPSHPRIPSIGPIAASSSGNTIDKNQNISQSANFVALFQYDARTDDDLSFKKDDILEILNDTQGDWWFARHKATGRTGYIPSNYVAREKSIESQPWYFGKMRRIDAEKCLLHTLNEHGAFLVRDSESRQHDLSLSVRENDSVKHYRIRQLDHGGYFIARRRPFATLHDLIAHYQREADGLCVNLGAPCAKSEAPQTTTFTYDDQWEVDRRSVRLIRQIGAGQFGEVWEGRWNVNVPVAVKKLKAGTADPTDFLAEAQIMKKLRHPKLLSLYAVCTRDEPILIVTELMQENLLTFLQRRGRQCQMPQLVEISAQVAAGMAYLEEMNFIHRDLAARNILINNSLSVKIADFGLARILMKENEYEARTGARFPIKWTAPEAANYNRFTTKSDVWSFGILLTEIVTFGRLPYPGMTNAEVLQQVDAGYRMPCPAGCPVTLYDIMQQCWRSDPDKRPTFETLQWKLEDLFNLDSSEYKEASINF | not soluble
3 | MGSDKIHHHHHHMITIKKGLDLPIAASPAQVIHNGNTVNEVAMLGEEYVGMRPSMKVREGDLVKKGQVLFEDKKNAGVVFTAPASGTVVAINRGEKRVLQSVVIKVEGDEQITFTRYEAAQLASLSAEQVRANLIDAGLWIAFRTRPFSKVPAVDATPASIFVNAMDTNPLSADPAVIINEYKNDFEYGLTVLIRLGVKVNLVKAAGVNIPTVDGITVHEFAGKHPAGLVGTHIHFIDPVNLTKTVWHLNYQDVIAFGKLFTTGELFTDRVVALAGPQVKTPRLVRTRLGANLSQLTTGELNVGENRIISGSVLSGATASGPVDFLGRYALQVSVLLEGCEKELLGWVMPGSDKYSITRTVLGHFRKKLFNFTTAVHGGERAMVPIGAYERVMPLDIIPTLLLRDLAAGDTDSAQNLGCLELDEEDLALCTYVCPGKNNYGPMLRTALDKIEKEG | not soluble
4 | MKEVAKPLQERFFIPHEIKVMGRWSTEDVEVKDPSLKPYINLEPRLLPHTHGRHAKKHFGKANVHIVERLINKVMRSGGSHYKVAGHFMRREHRSLNSKKVRAYEVVKEAFKIIEKRTGKNPIQVLVWAIENAAPREDTTSVMFGGIRYHVAVDISPLRRLDVALRNIALGASAKCYRTKMSFAEALAEEIILAANKDPKSYAYSKKLEIERIAESSR | soluble
5 | MMQSYDYDSDDSQTTSDEHINSRHSSRSDTASSSSSFTPQIIFNPRPHVVKVVKSETGFGFNVKGQVSEGGQLRSLNGQLYAPLQHVSAVLRRGAADQAGLRKGDRILEVNGLNVEGSTHRKVVDLIKNGGDELTMIVISVEDPDMDRFDYGEESSMAYGHDYSENRSLPVTIPSYNTVQDSLERYTVFNIHMAGRQLGSRRYSEFVELHLALKKHFYDYCFPQLPGKWPFKLSEQQLDSRRRGLEQYLEKICTIRVIAESELVQKFLMECDPMCEVEIRLMLPDGSPITIRTRRSITSSLFFTSAQRRLKMSREGAAACSIFELLDNSFERKVSESESVHELYTHNYSSASSSCLLLRKFIFDIDRERALCKRDMVFKQFCFVQAIADLHSGKVVTSRKSYQLRAIQNEENMDELLEMARELEGYNQVTFPPSVCILRKRRQTVIMVVRFANLLLKCPEDGNSMEIDWSRIKDFRVCDEATAFSFEYIRDEVGDSEQEQTEPRKTKYVRLETGFAEYMAECFAEIQFERQAGSDWKRDQNRVAATPEPLPETIEPQPTTHKIQFEKRILEQHRDCID | not soluble
6 | MNIRATRVGEQMKKELSDIISRRLKDPRIGFVTVTDVRVTGDLQQAKVYISVLGDDKQRENTLKALEKAKGFIRSEIGQRIRLRKTPEIFFEIDETIEYGSRIEQLIRQISSDDHPAKEADGEPNNG | not soluble
7 | MVTVYDVPADKLIQKTAEKLKEMNIGVPEWVDFVKTGVSRERRPDQDDWWYIRCASILRKIYIYGPVGVSRLRTAYGGRKNRGHEPEHFYKGSGNIIRKALQELEKLGLVEKTPEGRVVTPKGRSFLDNIAKEVRDEIINEIPALAKY | not soluble
8 | QVTLKESGPGILQPSQTLSLTCSFSGFSLSTYGMGVGWIRQPSGKGLEWLAHIWWDDVKRYNPALKSRLTISKDTSGSQVFLKIASVDTSDTATYYCARMGSDYDVWFDYWGQGTLVTVSAASTKGPSVFPLAPSSKSTSGGTAALGCLVKDYFPEPVTVSWNSGALTSGVHTFPAVLQSSGLYSLSSVVTVPSSSLGTQTYICNVNHKPSNTKVDKKVEPKSCHHHHHH | soluble
